From the supplement of paper PMC3334620 come the findings set out here.

Over roughly 33,000 sequences, “E-score (-0.5 to 0.5)” has its median near -0.035; the highest 2% begin near 0.34. Some of the results follow.

The target in this assay is T1, Mot3 (UniProt P54785).
T1 sequence: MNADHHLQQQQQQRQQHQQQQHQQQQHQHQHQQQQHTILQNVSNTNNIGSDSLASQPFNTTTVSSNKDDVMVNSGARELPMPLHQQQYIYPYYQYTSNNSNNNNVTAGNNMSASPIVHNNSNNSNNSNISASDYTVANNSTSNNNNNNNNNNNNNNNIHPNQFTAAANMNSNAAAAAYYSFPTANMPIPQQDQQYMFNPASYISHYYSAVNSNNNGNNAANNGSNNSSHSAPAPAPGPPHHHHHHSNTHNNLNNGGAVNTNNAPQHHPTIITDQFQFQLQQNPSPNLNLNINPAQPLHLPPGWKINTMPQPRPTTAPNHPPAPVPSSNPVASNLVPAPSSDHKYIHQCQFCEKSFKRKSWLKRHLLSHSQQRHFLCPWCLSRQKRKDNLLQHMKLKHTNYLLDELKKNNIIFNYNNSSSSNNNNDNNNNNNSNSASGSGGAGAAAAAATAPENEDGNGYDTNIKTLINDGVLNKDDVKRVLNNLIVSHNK
The experiment in a line: PBM E-score (8-mer binding enrichment) (E-score (-0.5 to 0.5)); higher = stronger / more preferred TF binding; most listed sequences are background and not binding sites. As to conditions: protein concentration: 200 nM; construct: GST-full length. Put shortly: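 The E-score, a modified Wilcoxon-Mann-Whitney statistic, was computed by the Universal PBM Analysis Suite for every ungapped eight-base word pooled with its reverse complement. Scans behind it were normalised with masliner after bound GST-tagged yeast transcription factors were detected with fluorescent anti-GST. The proteins, at about 100-200 nM, had been applied to universal all-10-mer Agilent arrays made double-stranded by primer extension.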
Regarding AACCTCGG, the “PBM E-score” value is -0.252.
In the case of CTCGCCTC, the “PBM E-score” value is -0.175.
As to CGCGCGGA, the “PBM E-score” value was -0.156.
As to CTGCTCGC, the “PBM E-score” value is -0.159.
On to CTGGATAC, for which the “PBM E-score” value is -0.0992.
In the case of CTTAGAAA, the “PBM E-score” value was found to be 0.11.
For the sequence ACAAAAGG, the “PBM E-score” value turned out to be 0.142.
CTGAAGCA: the “PBM E-score” value was -0.102.
On to CTACCCAG, for which the “PBM E-score” value is -0.0987.
Take TAGCCTGA: the “PBM E-score” value is 0.229.
Next, CCGCATCC: -0.179.
Regarding GCAACTCA, the “PBM E-score” value is 0.0787.
Turning to AGGGTTCC, the “PBM E-score” value stood at 0.0511.
As for CCGGCGAC, the “PBM E-score” value is -0.266.
As to ACAATAAC, the “PBM E-score” value worked out at 0.113.
The result for CTCTTCGC reads -0.098; that for CAGGGGAG, -0.203; that for CGGTTACG, -0.0122.
In the case of CACTTAGG, the “PBM E-score” value turned out to be 0.184.
For the sequence ATTATAGA, the “PBM E-score” value is -0.0674.
GGCCCTTA: the “PBM E-score” value was -0.0858.
Turning to ACGTAATA, the “PBM E-score” value stood at 0.35.
As to GATCGATA, the “PBM E-score” value is -0.131.
Next, GGTACATA: 0.238; ATTTATTC: 0.0806.
For the sequence AATCGCAC, the “PBM E-score” value was -0.0611.
On to AACACGAT, for which the “PBM E-score” value is 0.349.
For the sequence ATTGGGTA, the “PBM E-score” value is -0.155.
Consider GAAAACGC, for which the “PBM E-score” value is 0.0746.
With CCACAGAA, the “PBM E-score” value is 0.00876.
Next, ATGTGAGG: 0.0562.
Next, AGGGGGAT: -0.218; GAATTTTA: 0.0878; ACTTGCCA: -0.1.
Next, CTCATAGC: -0.157; ACTAGAAC: -0.0138.
In the case of CATCCCAA, the “PBM E-score” value is -0.0379.
With CAGACAGA, the “PBM E-score” value worked out at 0.0746.
As to GGTACGAC, the “PBM E-score” value was -0.0554.
As for ACGATCAT, the “PBM E-score” value amounted to 0.0802.
Next, CATATCTC: -0.0966; CACTCCGC: -0.196.
For the sequence GCACTCCA, the “PBM E-score” value is 0.0334.
Regarding ACTTTCAG, the “PBM E-score” value was -0.0383.
Next, GCCGAGAC: -0.15.
As for CTCGATGC, the “PBM E-score” value was -0.0372.
In the case of GGCTACTA, the “PBM E-score” value is -0.0622.
With CACGTGAA, the “PBM E-score” value turned out to be 0.183.
For the sequence AGCACACG, the “PBM E-score” value was 0.0884.
Next, AAAATAAC: 0.122; CAGGGTAA: 0.0319.
In the case of CAGGATCA, the “PBM E-score” value worked out at 0.147.
Next, CCTACTAG: 0.121; CGCGGACC: -0.147; ATATGGCG: -0.183.
The result for AGTGGATC reads -0.0313; that for GGTCAAGA, -0.0528.
For CGGACATC, the “PBM E-score” value was -0.247.
Take CGCCGAAA: the “PBM E-score” value was -0.111.
For the sequence TATGGAAA, the “PBM E-score” value was -0.133.
Next, ATCGCTTG: -0.0296; AAGTACGT: 0.0949.
Regarding CGGGATCA, the “PBM E-score” value is -0.168.
Take GTCGGCAC: the “PBM E-score” value was -0.129.
Next, ACGAATGC: 0.0202.
Take AGGCAATC: the “PBM E-score” value is 0.481.
With CCTTTGTA, the “PBM E-score” value was 0.289.
As to CCACTGGG, the “PBM E-score” value is -0.18.
On to ACTTTTCA, for which the “PBM E-score” value turned out to be 0.0743.
Take AGCCCAAT: the “PBM E-score” value was found to be 0.0566.
Regarding TGGTACCA, the “PBM E-score” value is -0.0506.
For ACGACATG, the “PBM E-score” value worked out at 0.327.
With CAGCAATC, the “PBM E-score” value is -0.262.
Regarding CATCAACG, the “PBM E-score” value was 0.00915.
Turning to ACATCACT, the “PBM E-score” value turned out to be 0.178.
Next, GATAGGAC: -0.294; GGGTTAGA: -0.237; CAAGAAGA: 0.0974.
With AAGAGTGT, the “PBM E-score” value is -0.0357.
With AAAACCCG, the “PBM E-score” value stood at 0.155.
Next, CTATTCAC: 0.116.
For the sequence AAACACAC, the “PBM E-score” value was 0.287.
AAGCGATC: the “PBM E-score” value is -0.0933.
In the case of TAATCCTA, the “PBM E-score” value stood at 0.0867.
Regarding AACATGAT, the “PBM E-score” value came out at 0.349.
As for CACGAACC, the “PBM E-score” value was 0.0932.
The result for CGCAAGAG reads -0.0975.
GGGGCTAC: the “PBM E-score” value is -0.269.
Turning to GGATAGAC, the “PBM E-score” value is -0.151.
For the sequence ACGGTACT, the “PBM E-score” value was -0.207.
As to ACCTACAT, the “PBM E-score” value is 0.289.
Consider CGTTTTGC, for which the “PBM E-score” value came out at 0.144.
Consider ATGTGTCC, for which the “PBM E-score” value is -0.0237.
Take GGCTGGAA: the “PBM E-score” value is -0.236.
